# Data reported in the supplement of paper PMC8728848.
# This is one part of the list.
# Columns and labels:
# Test in all cases: glycan array binding signal (z-score within array); higher = stronger binding
# Conditions in all cases: glycan notation: IUPAC condensed, linker removed
# [1] = target: Fuc(a1-2)Gal
# In short: (§1)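 The binding signal is a Z-score computed within each array. Data were drawn from 3228 arrays in the Consortium for Functional Glycomics database, restricted to those with a known protein sequence. Scores were averaged over arrays of the same protein sequence at different concentrations or buffers, and over linkers, and negative values can be taken as non-binding.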
# [2] = target: Fuc(a1-2)Gal(b1-3)GalNAc
# In short: as §1
# [3] = target: Fuc(a1-2)Gal(b1-3)GalNAc(a1-3)[Fuc(a1-2)]Gal(b1-4)Glc
# In short: as §1
# [4] = target: Fuc(a1-2)Gal(b1-3)GalNAc(a1-3)[Fuc(a1-2)]Gal(b1-4)GlcNAc
# In short: as §1
# [5] = target: Fuc(a1-2)Gal(b1-3)GalNAc(b1-3)Gal
# In short: as §1
# [6] = target: Fuc(a1-2)Gal(b1-3)GalNAc(b1-3)Gal(a1-4)Gal(b1-4)Glc
# In short: as §1
# [7] = target: Fuc(a1-2)Gal(b1-3)GalNAc(b1-4)[Neu5Ac(a2-3)]Gal(b1-4)Glc
# In short: as §1
# [8] = target: Fuc(a1-2)Gal(b1-3)GlcNAc
# In short: as §1
# [9] = target: Fuc(a1-2)Gal(b1-3)GlcNAc(b1-2)Man(a1-3)[Fuc(a1-2)Gal(b1-3)GlcNAc(b1-2)Man(a1-6)]Man(b1-4)GlcNAc(b1-4)GlcNAc
# In short: as §1
# [10] = target: Fuc(a1-2)Gal(b1-3)GlcNAc(b1-2)Man(a1-3)[Fuc(a1-2)Gal(b1-3)GlcNAc(b1-2)Man(a1-6)]Man(b1-4)GlcNAc(b1-4)[Fuc(a1-6)]GlcNAc
# In short: as §1
# [11] = target: Fuc(a1-2)Gal(b1-3)GlcNAc(b1-3)Gal(b1-4)Glc
# In short: as §1
# [12] = target: Fuc(a1-2)Gal(b1-3)GlcNAc(b1-3)GalNAc
# In short: as §1
# [13] = target: Fuc(a1-2)Gal(b1-3)GlcNAc(b1-3)[Fuc(a1-2)Gal(b1-3)GlcNAc(b1-6)]GalNAc
# In short: as §1
# [14] = target: Fuc(a1-2)Gal(b1-3)GlcNAc(b1-3)[Fuc(a1-3)[Gal(b1-4)]GlcNAc(b1-6)]Gal(b1-4)Glc
# In short: as §1
# [15] = target: Fuc(a1-2)Gal(b1-3)GlcNAc(b1-3)[Gal(b1-4)GlcNAc(b1-6)]Gal(b1-4)Glc
# In short: as §1
# [16] = target: Fuc(a1-2)Gal(b1-3)GlcNAc(b1-3)[Neu5Ac(a2-6)Gal(b1-4)GlcNAc(b1-6)]Gal(b1-4)Glc
# In short: as §1
# [17] = target: Fuc(a1-2)Gal(b1-3)GlcNAc6S
# In short: as §1
# [18] = target: Fuc(a1-2)Gal(b1-3)[Fuc(a1-4)]GlcNAc
# In short: as §1
# [19] = target: Fuc(a1-2)Gal(b1-3)[Fuc(a1-4)]GlcNAc(b1-2)Man(a1-3)[Fuc(a1-2)Gal(b1-3)[Fuc(a1-4)]GlcNAc(b1-2)Man(a1-6)]Man(b1-4)GlcNAc(b1-4)GlcNAc
# In short: as §1
# [20] = target: Fuc(a1-2)Gal(b1-3)[Fuc(a1-4)]GlcNAc(b1-2)Man(a1-6)[Fuc(a1-2)Gal(b1-3)[Fuc(a1-4)]GlcNAc(b1-2)Man(a1-3)]Man(b1-4)GlcNAc(b1-4)[Fuc(a1-6)]GlcNAc
# In short: as §1
# [21] = target: Fuc(a1-2)Gal(b1-3)[Fuc(a1-4)]GlcNAc(b1-3)[Fuc(a1-3)[Gal(b1-4)]GlcNAc(b1-6)]Gal(b1-4)Glc
# In short: as §1
# [22] = target: Fuc(a1-2)Gal(b1-3)[Fuc(a1-4)]GlcNAc(b1-3)[Gal(b1-4)GlcNAc(b1-6)]Gal(b1-4)Glc
# In short: as §1
# [23] = target: Fuc(a1-2)Gal(b1-4)Glc
# In short: as §1
# [24] = target: Fuc(a1-2)Gal(b1-4)Glc6S
# In short: as §1
# [25] = target: Fuc(a1-2)Gal(b1-4)GlcNAc
# In short: as §1
# [26] = target: Fuc(a1-2)Gal(b1-4)GlcNAc(b1-2)Man
# In short: as §1
# [27] = target: Fuc(a1-2)Gal(b1-4)GlcNAc(b1-2)Man(a1-3)[Fuc(a1-2)Gal(b1-4)GlcNAc(b1-2)Man(a1-6)]Man(b1-4)GlcNAc(b1-4)GlcNAc
# In short: as §1
# [28] = target: Fuc(a1-2)Gal(b1-4)GlcNAc(b1-2)Man(a1-3)[Fuc(a1-2)Gal(b1-4)GlcNAc(b1-2)Man(a1-6)]Man(b1-4)GlcNAc(b1-4)[Fuc(a1-6)]GlcNAc
# In short: as §1
# [29] = target: Fuc(a1-2)Gal(b1-4)GlcNAc(b1-2)[Fuc(a1-2)Gal(b1-4)GlcNAc(b1-4)]Man(a1-3)[Fuc(a1-2)Gal(b1-4)GlcNAc(b1-2)Man(a1-6)]Man(b1-4)GlcNAc(b1-4)GlcNAc
# In short: as §1
# [30] = target: Fuc(a1-2)Gal(b1-4)GlcNAc(b1-3)Gal(b1-4)GlcNAc
# In short: as §1
binder,measurement,setting,value
CIH1 (Colletotrichum higginsianum) (protein) LPQATPTTPTPTSASAAATISATSSPTCSPGPVIDYTVVSGDTLTIISQRFSSGICNIADASGITNPNFLSLGQVLQVPTYVCTPDNTSCLAKEGSDTCVEGGPATHTIVAGDTFFLVAQSLGLDVNALLAANEGVDPLLLQIGDVINIPVC,glycan array binding signal (z-score),[1],-0.065
same,glycan array binding signal (z-score),[2],-0.071
same,glycan array binding signal (z-score),[3],-0.062
same,glycan array binding signal (z-score),[4],-0.055
same,glycan array binding signal (z-score),[5],-0.08
same,glycan array binding signal (z-score),[6],-0.071
same,glycan array binding signal (z-score),[7],-0.071
same,glycan array binding signal (z-score),[8],-0.064
same,glycan array binding signal (z-score),[9],-0.047
same,glycan array binding signal (z-score),[10],-0.075
same,glycan array binding signal (z-score),[11],-0.067
same,glycan array binding signal (z-score),[12],-0.067
same,glycan array binding signal (z-score),[13],-0.033
same,glycan array binding signal (z-score),[14],-0.061
same,glycan array binding signal (z-score),[15],-0.085
same,glycan array binding signal (z-score),[16],-0.068
same,glycan array binding signal (z-score),[17],-0.067
same,glycan array binding signal (z-score),[18],-0.066
same,glycan array binding signal (z-score),[19],0.015
same,glycan array binding signal (z-score),[20],-0.06
same,glycan array binding signal (z-score),[21],-0.06
same,glycan array binding signal (z-score),[22],-0.074
same,glycan array binding signal (z-score),[23],-0.063
same,glycan array binding signal (z-score),[24],-0.071
same,glycan array binding signal (z-score),[25],-0.08
same,glycan array binding signal (z-score),[26],-0.068
same,glycan array binding signal (z-score),[27],-0.085
same,glycan array binding signal (z-score),[28],-0.072
same,glycan array binding signal (z-score),[29],-0.061
same,glycan array binding signal (z-score),[30],-0.075
